Experimental data as given in the supplement of paper PMC11741623.
The other results are listed elsewhere or left out. Interaction screen of human proteins with wild-type SARS-CoV-2 proteins by split-DHFR complementation in yeast, 1 µg/mL methotrexate. Value = fitness of the pair (three or more lineages) minus that of the viral protein without a human partner, on a scale set by negative (0) and fused positive (1) controls, mean of up to three cultures; higher = more likely to interact. Active = false discovery rate below 0.05 (one-sided t-test) in at least one culture. Nearly all pairs are not hits, and differences among them are mostly noise (correlation between cultures about 0.3); most hits were seen in one culture only. Human sequences are the Swiss-Prot entries looked up by gene name; the clone may be another isoform. NSP2 values were corrected by the authors for a growth advantage. Listed are human proteins with a hit and a random twelfth of the others.

B1: ATP5L2, Q7Z4Y8 (protein)
chain: MAPFVRNLVEKTPALVNAAVTYLKPRLAAFWYYTTVELVPPTPAEIPRAIQSLKKIVSSAQTGSFKQLTVKEALLNGLVATEVSTWFYVREITGKRGIIG
B2: NRBP2, Q9NSY0 (protein)
chain: MAAPEPAPRRAREREREREDESEDESDILEESPCGRWQKRREQVNQGNMPGLQSTFLAMDTEEGVEVVWNELHFGDRKAFAAHEEKIQTVFEQLVLVDHPNIVKLHKYWLDTSEACARVIFITEYVSSGSLKQFLKKTKKNHKAMNARAWKRWCTQILSALSFLHACSPPIIHGNLTSDTIFIQHNGLIKIGSVWHRIFSNALPDDLRSPIRAEREELRNLHFFPPEYGEVADGTAVDIFSFGMCALEMAVLEIQTNGDTRVTEEAIARARHSLSDPNMREFILCCLARDPARRPSAHSLLFHRVLFEVHSLKLLAAHCFIQHQYLMPENVVEEKTKAMDLHAVLAELPRPRRPPLQWRYSEVSFMELDKFLEDVRNGIYPLMNFAATRPLGLPRVLAPPPEEVQKAKTPTPEPFDSETRKVIQMQCNLERSEDKARWHLTLLLVLEDRLHRQLTYDLLPTDSAQDLASELVHYGFLHEDDRMKLAAFLESTFLKYRGTQA

target: SARS-CoV-2 E; test: yeast fitness gain over the viral ORF with no human partner (scaled fitness); higher = more likely to interact
Method: (§1)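 Split mouse DHFR complementation in pooled diploid yeast: human ORFeome clones carry one fragment and viral ORFs the other; barcoded lineages compete in 1 µg/mL methotrexate and fitness is read by barcode sequencing in up to three cultures.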

For B1, which yeast fitness gain is on record?
Its yeast fitness gain is inactive: -0.00565.

For B2, which yeast fitness gain is on record?
Its yeast fitness gain is inactive: -0.0714.

target: SARS-CoV-2 M; test: as above
Method: as §1

B1 was tested. Which yeast fitness gain did it give?
The yeast fitness gain was inactive: 0.0372.

With B2 as the binder, how does the yeast fitness gain read?
Its yeast fitness gain is inactive: 0.0453.

target: SARS-CoV-2 N; test: as above
Method: as §1

B1 was tested. Which yeast fitness gain did it give?
The yeast fitness gain was inactive: 0.000423.

target: SARS-CoV-2 NSP1; test: as above
Method: as §1

For B1, which yeast fitness gain is on record?
The yeast fitness gain was inactive: -0.0189.

Which yeast fitness gain does the source give for B2 here?
The yeast fitness gain was inactive: -0.214.

target: SARS-CoV-2 NSP10; test: as above
Method: as §1

B1 was tested. Which yeast fitness gain did it give?
Its yeast fitness gain is inactive: 0.0313.

B2 was tested. Which yeast fitness gain did it give?
The yeast fitness gain was inactive: 0.0328.

target: SARS-CoV-2 NSP12; test: as above
Method: as §1

With B1 as the binder, how does the yeast fitness gain read?
Its yeast fitness gain is inactive: -0.0114.

How did the yeast fitness gain turn out when B2 was run?
Its yeast fitness gain is inactive: 0.0421.

target: SARS-CoV-2 NSP13; test: as above
Method: as §1

For B1, which yeast fitness gain is on record?
The yeast fitness gain was inactive: 0.0445.

Which yeast fitness gain does the source give for B2 here?
The yeast fitness gain was inactive: -0.0859.

target: SARS-CoV-2 NSP14; test: as above
Method: as §1

For B1, which yeast fitness gain is on record?
Its yeast fitness gain is inactive: -0.165.

target: SARS-CoV-2 NSP15; test: as above
Method: as §1

Which yeast fitness gain does the source give for B1 here?
Its yeast fitness gain is inactive: -0.0224.

B2 was tested. Which yeast fitness gain did it give?
The yeast fitness gain was inactive: 0.12.

target: SARS-CoV-2 NSP16; test: as above
Method: as §1

For B1, which yeast fitness gain is on record?
Its yeast fitness gain is inactive: 0.0552.

target: SARS-CoV-2 NSP2; test: as above
Method: as §1

Which yeast fitness gain does the source give for B1 here?
Its yeast fitness gain is inactive: -0.137.

B2 was tested. Which yeast fitness gain did it give?
The yeast fitness gain was inactive: -0.176.

target: SARS-CoV-2 NSP4; test: as above
Method: as §1

For B1, which yeast fitness gain is on record?
Its yeast fitness gain is inactive: -0.0561.

target: SARS-CoV-2 NSP5; test: as above
Method: as §1

With B1 as the binder, how does the yeast fitness gain read?
The yeast fitness gain was inactive: -0.0765.

B2 was tested. Which yeast fitness gain did it give?
Its yeast fitness gain is inactive: 0.000896.

target: SARS-CoV-2 NSP6; test: as above
Method: as §1

For B1, which yeast fitness gain is on record?
Its yeast fitness gain is inactive: -0.0155.

Which yeast fitness gain does the source give for B2 here?
Its yeast fitness gain is inactive: -0.0741.

target: SARS-CoV-2 NSP7; test: as above
Method: as §1

With B1 as the binder, how does the yeast fitness gain read?
The yeast fitness gain was inactive: 0.0621.

Which yeast fitness gain does the source give for B2 here?
Its yeast fitness gain is inactive: -0.00991.

target: SARS-CoV-2 NSP8; test: as above
Method: as §1

Which yeast fitness gain does the source give for B1 here?
Its yeast fitness gain is inactive: 0.048.

How did the yeast fitness gain turn out when B2 was run?
The yeast fitness gain was inactive: 0.00825.

target: SARS-CoV-2 NSP9; test: as above
Method: as §1

B1 was tested. Which yeast fitness gain did it give?
Its yeast fitness gain is inactive: 0.0321.

Which yeast fitness gain does the source give for B2 here?
The yeast fitness gain was inactive: -0.571.

target: SARS-CoV-2 ORF10; test: as above
Method: as §1

With B1 as the binder, how does the yeast fitness gain read?
The yeast fitness gain was inactive: 0.0294.

With B2 as the binder, how does the yeast fitness gain read?
The yeast fitness gain was inactive: -0.155.

target: SARS-CoV-2 ORF3A; test: as above
Method: as §1

How did the yeast fitness gain turn out when B1 was run?
Its yeast fitness gain is inactive: -0.00488.

For B2, which yeast fitness gain is on record?
Its yeast fitness gain is inactive: -0.141.

target: SARS-CoV-2 ORF3B; test: as above
Method: as §1

Which yeast fitness gain does the source give for B1 here?
Its yeast fitness gain is inactive: 0.0295.

With B2 as the binder, how does the yeast fitness gain read?
Its yeast fitness gain is inactive: 0.0472.

target: SARS-CoV-2 ORF6; test: as above
Method: as §1

For B1, which yeast fitness gain is on record?
The yeast fitness gain was inactive: -0.00853.

How did the yeast fitness gain turn out when B2 was run?
Its yeast fitness gain is inactive: -0.0272.

target: SARS-CoV-2 ORF7A; test: as above
Method: as §1

B1 was tested. Which yeast fitness gain did it give?
Its yeast fitness gain is inactive: 0.00571.

For B2, which yeast fitness gain is on record?
The yeast fitness gain was inactive: 0.0375.

target: SARS-CoV-2 ORF7B; test: as above
Method: as §1

For B1, which yeast fitness gain is on record?
The yeast fitness gain was inactive: 0.0135.

With B2 as the binder, how does the yeast fitness gain read?
The yeast fitness gain was inactive: -0.0667.

target: SARS-CoV-2 ORF8; test: as above
Method: as §1

For B1, which yeast fitness gain is on record?
Its yeast fitness gain is inactive: 0.0221.

Which yeast fitness gain does the source give for B2 here?
The yeast fitness gain was inactive: -0.0719.

target: SARS-CoV-2 ORF9B; test: as above
Method: as §1

With B1 as the binder, how does the yeast fitness gain read?
Its yeast fitness gain is inactive: -0.0135.

Which yeast fitness gain does the source give for B2 here?
Its yeast fitness gain is inactive: -0.013.

target: SARS-CoV-2 ORF9Bwu (the 73-codon ORF); test: as above
Method: as §1

Which yeast fitness gain does the source give for B1 here?
The yeast fitness gain was inactive: 0.00828.

With B2 as the binder, how does the yeast fitness gain read?
Its yeast fitness gain is inactive: -0.0424.

target: SARS-CoV-2 S; test: as above
Method: as §1

With B1 as the binder, how does the yeast fitness gain read?
The yeast fitness gain was inactive: 0.0141.

How did the yeast fitness gain turn out when B2 was run?
The yeast fitness gain was inactive: -0.0525.
